# Test results as given in paper PMC4336329 (PLoS ONE, 2015).
# About 2,200 (0.71%) of roughly 310,000 compounds showed an effect of 50% or more. Effects have a minus sign here. Some of the results follow.
# Target: human ether-à-go-go-related gene (hERG) potassium channel (human, UniProt Q12809)
# Assay: primary screen, population patch clamp on CHO cells stably expressing hERG
# Sequence of human ether-à-go-go-related gene (hERG) potassium channel (Q12809 whole entry, looked up): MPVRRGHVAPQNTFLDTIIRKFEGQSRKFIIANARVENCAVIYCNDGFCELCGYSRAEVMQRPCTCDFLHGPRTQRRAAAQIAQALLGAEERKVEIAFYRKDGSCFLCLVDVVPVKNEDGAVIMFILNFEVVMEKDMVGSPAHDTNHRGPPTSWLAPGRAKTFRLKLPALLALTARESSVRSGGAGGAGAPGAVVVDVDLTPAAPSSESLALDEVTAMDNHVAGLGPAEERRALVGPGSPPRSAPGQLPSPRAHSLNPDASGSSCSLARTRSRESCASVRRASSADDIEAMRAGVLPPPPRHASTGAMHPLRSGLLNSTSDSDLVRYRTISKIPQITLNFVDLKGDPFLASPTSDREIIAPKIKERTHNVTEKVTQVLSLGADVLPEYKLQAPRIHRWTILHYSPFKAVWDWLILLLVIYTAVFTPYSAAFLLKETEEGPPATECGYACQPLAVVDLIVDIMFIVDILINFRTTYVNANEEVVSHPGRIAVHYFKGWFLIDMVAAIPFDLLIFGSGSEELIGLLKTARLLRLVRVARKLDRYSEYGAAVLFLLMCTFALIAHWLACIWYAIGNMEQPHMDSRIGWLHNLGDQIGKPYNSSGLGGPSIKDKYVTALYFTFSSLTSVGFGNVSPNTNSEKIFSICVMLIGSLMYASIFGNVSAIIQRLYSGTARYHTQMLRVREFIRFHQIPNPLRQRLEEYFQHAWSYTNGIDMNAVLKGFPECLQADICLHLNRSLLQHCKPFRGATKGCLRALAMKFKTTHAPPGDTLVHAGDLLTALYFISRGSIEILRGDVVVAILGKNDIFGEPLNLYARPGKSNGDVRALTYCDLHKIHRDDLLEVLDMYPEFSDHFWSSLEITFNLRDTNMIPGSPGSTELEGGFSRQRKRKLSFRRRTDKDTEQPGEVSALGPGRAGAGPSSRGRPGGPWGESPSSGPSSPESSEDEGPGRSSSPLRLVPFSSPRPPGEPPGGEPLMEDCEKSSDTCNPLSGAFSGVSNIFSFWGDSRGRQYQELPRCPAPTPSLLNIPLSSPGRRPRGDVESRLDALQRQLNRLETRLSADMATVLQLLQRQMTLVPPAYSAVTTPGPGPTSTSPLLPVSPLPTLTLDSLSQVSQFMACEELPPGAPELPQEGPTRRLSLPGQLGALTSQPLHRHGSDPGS
row,Compound,"hERG current change (%, negative = inhibition) at 1uM [%]"
1,CC(C)CCn1c(=O)c2ccccc2n2c(CN(C)Cc3ccccc3)nnc12,-6.25
2,Cc1c(C(=O)N(Cc2ccccc2)Cc2cccs2)cnn1-c1ccc(Cl)cc1,14
3,CC(=O)C1=C(O)C(=O)N(c2ccc(S(N)(=O)=O)cc2)C1c1ccccc1F (centres unmarked),11.4
4,COc1cc(S(=O)(=O)NCCCn2ccnc2)ccc1Cl,25.5
5,O=C(CSc1nnc(CNC(=O)c2ccccc2)o1)NCCc1ccccc1,10.3
6,CCC(CO)NCc1sccc1C (centres unmarked),15.3
7,COC(=O)C1(C)NC(c2ccc(OC)cc2)C2C(=O)N(c3ccccc3)C(=O)C21 (centres unmarked),9.13
8,CCC(C)NC(=S)Nc1ccccc1OC (centres unmarked),1.64
9,O=c1ccn(CCCBr)c(=O)[nH]1,19.3
10,Cc1ccnc(NC(=O)c2ccc(OCC3CCCO3)cc2)c1 (centres unmarked),1.69
11,CCOc1ccccc1C(=O)NC(CO)C(=O)O (centres unmarked),-0.598
12,CCCCC(NC(=O)c1cccc(Br)c1)C(=O)O (centres unmarked),9.9
13,COc1cc(C2C(C#N)=C(N)N(N(C)C)C3=C2C(=O)CCC3)ccc1O (centres unmarked),12
14,Cc1nc(SCC(=O)N2CCCCCC2)[nH]c(=O)c1C,18
15,COc1cnc(-c2ccccc2)nc1Sc1ccccc1,20.5
16,CN(C(=O)Nc1ccccc1)n1cnc2ccccc2c1=O,13.8
17,CC(=O)CCC(=O)NC1CCCc2c1cnn2-c1ccc(C(C)(C)C)cc1 (centres unmarked),0.428
18,C=CCn1c(-c2ccccc2OC)n[nH]c1=S,15.3
19,O=C(CCC(=O)N1CCN(c2ccccn2)CC1)c1ccc(Cl)s1,3.83
20,N#Cc1c(-c2ccccc2)c(-c2ccccc2)nn(CC(=O)NNC(=O)Nc2ccccc2)c1=O,21.5
21,CCN(CC)S(=O)(=O)c1ccc(/C(O)=C2/C(=O)C(=O)N(CCOC)C2c2ccccc2)cc1 (centres unmarked),11.6
22,CC(=O)NCC1=C(NC(C)=O)C2CC1C(C)(C)C2C (centres unmarked),12.1
23,O=C(NCCN1CCOCC1)c1cc(Br)ccc1Cl,12.6

row,Compound,"hERG current change (%, negative = inhibition) at 1uM [%]"
1,CCOc1ccccc1NC(=O)COc1ccc2ccc(=O)oc2c1,15.1
2,Nc1[nH]n2c(=O)cc(-c3ccccc3)nc2c1N=Nc1ccc(S(N)(=O)=O)cc1,11.4
3,CCOC(=O)CSc1c(-c2cccs2)[nH]c2ccccc12,8.2
4,Cn1cc(S(=O)(=O)N2CCc3ccccc32)cc1C(=O)NC1CCCCC1,11.1
5,O=C(COC(=O)CCNS(=O)(=O)c1cccs1)Nc1cc(C(F)(F)F)ccc1Cl,1.42
6,COc1ccc(S(=O)(=O)NCC(=O)O)cc1C(=O)NC1CCCCC1,29
7,COc1ccc(O)c(/C=N/NC(=O)c2ccc(N3CCCC3=O)cc2)c1,4.17
8,CCOc1ccc2nc(N(CCCN(C)C)C(=O)c3ccc(S(=O)(=O)N4CCCC4)cc3)sc2c1.Cl,-18.3
9,CC1CCC2(CC1)NC(=O)N(CC(=O)Nc1ccc(N3CCOCC3)cc1)C2=O (centres unmarked),7.74
10,O=C(N=C1SC2CS(=O)(=O)CC2N1c1cccc(F)c1)C1CC1 (centres unmarked),10
11,CCCCn1cc([N+](=O)[O-])nc1C,14.3
12,CN(C)C=NCCn1c(N2CCOCC2)nc2c1c(=O)n(C)c(=O)n2C.Cl,5.64
13,CCOC(=O)C1=C(N)N(c2ccccc2)C2=C(C(=O)CCC2)C1c1cccnc1 (centres unmarked),2.28
14,CC(O)C(NC=C1C(=O)OC(C)(C)OC1=O)C(=O)O (centres unmarked),12.4
15,O=C(CN1CCN(S(=O)(=O)c2ccccc2)CC1)Nc1ccc2c(c1)OCO2,1.86
16,COC(=O)CN(C#N)c1nc(OC)nc(N(C)C)n1,4.04
17,Cc1ccc(-c2onc(C)c2C)cc1S(=O)(=O)N1CCOc2ccccc21,11.9
18,CCNC(=O)NC(=O)C(C)OC(=O)c1oc2ccc(OCC)cc2c1C (centres unmarked),2.17
19,CCC(C)(C)NC(=O)CN(C(=O)CCC(=O)Nc1nccs1)c1cccc(C)c1C,11.2
20,N#CCC(=O)Nc1ccc(C(=O)OCC(=O)N(C2CCCCC2)C2CCCCC2)cc1,12
21,Cc1cccc(C)c1NC(=O)C1CC(=O)N(C(C)C)C1 (centres unmarked),-6.09
22,COc1ccc(OC)c(S(=O)(=O)N2CCC(C(=O)Nc3cccc(C)c3)CC2)c1,-2.34
23,CC(C)(C)c1ccc(C(=O)CC(=O)c2cc(Cl)ccc2O)cc1,-16.3

row,Compound,"hERG current change (%, negative = inhibition) at 1uM [%]"
1,COc1ccc(S(=O)(=O)N(C)c2ccc(C(=O)NCc3ccccn3)cc2)cc1,8.53
2,Cc1ccc(NC(=O)CCn2ccc([N+](=O)[O-])n2)nc1,4.02
3,Cn1c(SCC(=O)N2CCCC2)nc2ccccc2c1=O,0.705
4,CSc1cccc(NS(=O)(=O)c2ccc(-c3coc(C)n3)cc2)c1,21.5
5,Cc1ccc(C(=O)N2CCCC(C(=O)c3ccc(Cl)cc3C)C2)cn1 (centres unmarked),8.49
6,Cc1cc2cc(CNS(=O)(=O)c3ccc4ccccc4c3)ccc2n1C,17.4
7,O=C(Nc1ccc(Cl)cc1)Nc1nccs1,-15.9
8,CCC(C)NS(=O)(=O)c1ccc(NC(C)=O)cc1 (centres unmarked),11.2
9,Cc1ccc(/C=C/C(=O)NCc2ccc3c(c2)OCO3)o1,6.44
10,CCN1C(=O)NC(c2ccc(Cl)cc2)C2=C1CCCC2=O (centres unmarked),10.5
11,CC(=O)Nc1ccc(S(=O)(=O)NCCc2cc3c(C)ccc(C)c3[nH]c2=O)cc1,6.89
12,COc1ccc(NC(=O)c2cc3nc(-c4ccccc4)cc(-c4ccccc4)n3n2)c(OC)c1,10.4
13,Cc1noc(C)c1COc1ccc(C(=O)NCCc2ccccn2)cc1,21.1
14,CCOC(=O)c1sc2nc(CSCC(=O)OCc3ccc(C(=O)OC)o3)[nH]c(=O)c2c1C,12.9
15,Cc1ccc(S(=O)(=O)N2CCN(C(=O)c3ccc(OCc4c(C)noc4C)cc3)CC2)cc1,-1.67
16,NS(=O)(=O)c1cccc(NC(=O)COC(=O)Cn2cnc3ccccc32)c1,3.84
17,COc1ccc(C(=O)Nc2ncc3c(n2)-c2ccccc2CC3)cc1,2.21
18,O=C(c1ccc(NC(=S)Nc2ccc(Cl)c(Cl)c2)cc1)N1CCCC1,1.69
19,O=C(NCCOc1ccccc1Cl)c1cccc2c1C(=O)c1ccc(Cl)cc1S2(=O)=O,6.99
20,COc1ccc(-n2nc(C(C)=O)c(=O)[nH]c2=O)cc1,14.9
21,CCCCN(C(=O)c1ccc(C)cc1)c1c(N)n(CCC)c(=O)[nH]c1=O,17.2
22,CC(=O)OC1CC[C@]2(C#N)[C@H]3CC[C@]4(C)[C@H](C5C=CC(=O)O5)CCC4(O)C3CCC2(O)C1 (some centres unmarked),12.9
23,CCOC(=O)N/N=C\c1ccc(-c2cccc(C(F)(F)F)c2)o1,5.97

row,Compound,"hERG current change (%, negative = inhibition) at 1uM [%]"
1,CSc1ccccc1NC(=O)CN(C)Cc1c(O)ccc2ccccc12,15.3
2,CCOP(=O)(OCC)C(Nc1cccc(C(F)(F)F)c1)c1ccc(C)cc1 (centres unmarked),13.1
3,COc1ccc(-c2nc3ccccc3o2)cc1OC,5.06
4,O=C(O)c1[nH]c2ccccc2c1CC(=O)N1CCN(c2ccccc2)CC1,14.7
5,COC(=O)c1cccc(CSc2nc(-c3ccccc3)c(C#N)c(=O)[nH]2)c1,12.7
6,Cc1oc(-c2cc(Cl)cc(Cl)c2)cc1C(=O)NCCc1ccccc1,14.7
7,COc1ccc(NC2CCCN(C(=O)c3ccc(CSC)o3)C2)cc1OC (centres unmarked),5.39
8,C=CCn1c(=NC(=O)C2CC2)sc2cc(NC(C)=O)ccc21,7.85
9,Cc1cc(F)ccc1S(=O)(=O)Nc1ccc(C(=O)N2CCCCCC2)cc1,6.18
10,CC(C)(C)/C(Cn1cncn1)=N\OC(=O)Nc1ccc(Cl)cc1,7.81
11,O=C(CSc1ccc(Cl)cc1)NNC(=O)c1ccco1,6.69
12,O=C(COC(=O)c1ccccc1Br)Nc1ccc(F)cc1,16.6
13,O=C(NC(N1CCOCC1)C(Cl)(Cl)Cl)c1cc([N+](=O)[O-])cc([N+](=O)[O-])c1 (centres unmarked),5.15
14,COc1ccc(CNC(=O)CN(Cc2ccc(C)cc2)C(=O)c2csnn2)cc1,-10.4
15,COc1ccc(N2CCN(CCNC(=O)CCS(=O)(=O)c3cccc4nsnc34)CC2)cc1,4.59
16,COc1ccc(CCNC(=O)C(=O)NCC2OCCN2S(=O)(=O)c2ccccc2)cc1OC (centres unmarked),7.89
17,Cc1nc2oc3ccc(F)cc3c(=O)c2cc1C(=O)NC(C)(C)C,17
18,CCN(CC)S(=O)(=O)c1ccc(C)c(NC(=O)COC(=O)CN2C(=O)NC(C)(C)C2=O)c1,2.92
19,CCOC(=O)C1CCN(C(=O)C2CCN(S(=O)(=O)CC)CC2)CC1,9.44
20,CCOc1cc(/C=N\n2nnnc2N)ccc1O,10.1
